# Experimental data: PubChem BioAssay AID624417 (National Center for Advancing Translational Sciences (NCATS), 2012)
# Hit rate of the full screen: of about 410,000 compounds, about 6,400 (1.6%) were called active. Inconclusive results, whose numbers are uncertain, are shown with a selection of clear calls. Calls follow the shape of the dose curve; as a rule, active = well fitted inhibition curve with a large enough effect; inconclusive = small, poorly fitted or top-dose-only effect; inactive = no such curve, though single readings can be large or run the other way. No potency is given beside an inconclusive call; the fits are too rough.
# Biological target: Glucagon-like peptide 1 receptor (Homo sapiens) (UniProt P43220)
# Chain of UniProt P43220 (P43220 whole entry, looked up): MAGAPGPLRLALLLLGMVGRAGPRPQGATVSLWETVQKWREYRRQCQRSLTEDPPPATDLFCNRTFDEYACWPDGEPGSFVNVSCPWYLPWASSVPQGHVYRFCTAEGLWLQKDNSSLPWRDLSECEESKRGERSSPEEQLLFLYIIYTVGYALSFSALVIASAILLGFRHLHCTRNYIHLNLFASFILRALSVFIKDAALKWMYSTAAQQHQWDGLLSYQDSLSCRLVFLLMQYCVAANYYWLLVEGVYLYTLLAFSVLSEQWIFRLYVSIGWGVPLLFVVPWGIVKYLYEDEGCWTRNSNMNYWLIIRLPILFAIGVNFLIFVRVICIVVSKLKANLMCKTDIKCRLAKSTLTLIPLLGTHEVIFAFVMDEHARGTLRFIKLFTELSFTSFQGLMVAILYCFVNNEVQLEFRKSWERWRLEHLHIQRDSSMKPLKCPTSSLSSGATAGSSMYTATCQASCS
# Assay: qHTS of GLP-1 Receptor Inverse Agonists (Inhibition Mode); also: nearly all actives have a fitted effect of over 55% in size
# Settings: HEK293 GLP-1R CRE-luciferase, luminescence, 24 h, GLP-1R form is constitutively active; activity change, negative = inhibition: at 38.3 µM (top of the series) unless noted
# Procedure, shortened: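 GLP-1R inverse agonism mode: basal reporter luminescence in engineered HEK293 cells measured after one day of compound exposure at 37 deg C, with a 12 min room-temperature detection step.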
# % is scaled to controls: 0 for no effect and ±100 for the full control effect; potency is read from the fitted curve at half-maximal effect; tags tell the direction and shape of the fitted curve.
Structure (SMILES),Potency,"activity change, negative = inhibition"
O=C(/C=C/c1ccc2c(c1)OCO2)NCCSCc1ccc(Cl)cc1Cl,"inconclusive [inhibitor, partial curve, poor fit]",–
Cc1nnnn1/C(=C\c1ccccc1)C(=O)OCC(=O)N1CC2(C)CC1CC(C)(C)C2 (stereo unspecified),"inconclusive [inhibitor, partial curve, poor fit]",–
O=C(CCc1ccccc1)NNC(=O)c1ccccn1,"inconclusive [inhibitor, partial curve, poor fit]",–
O=C(Nc1cc2c(cc1C(=O)O)OCCCO2)c1ccc(C(F)(F)F)cc1,"inconclusive [inhibitor, single point]",–
CN1CCN(C2=Cc3ccccc3Sc3cc(F)c(F)cc32)CC1,"inconclusive [inhibitor, partial curve, poor fit]",–
N#Cc1c2n(c3c(=O)n(CC(=O)c4ccc([N+](=O)[O-])cc4)cnc13)CCCCC2,"inconclusive [inhibitor, partial curve, poor fit]",–
CCn1c(SCC(=O)Nc2nc(-c3ccc(C)cc3)cs2)nnc1-c1ccccc1O,"inconclusive [inhibitor, full curve, poor fit]",–
O=C(Nc1c2c(nn1-c1ccc(Cl)cc1)CS(=O)(=O)C2)c1cccc(Cl)c1,"inconclusive [inhibitor, single point]",–
CCCCCCCn1c(=O)c(C(=O)OC)c(N)c2ccccc21,active: 11.2 µM,–
CCCN(CCC)c1ncnc2c1cnn2-c1ccc(OC)cc1,active: 10 µM,–
Cc1cc(C)cc(NS(=O)(=O)c2ccc(F)cc2)c1,"inconclusive [inhibitor, single point]",–
CCc1cccc(NC(=O)CN2c3ccccc3S(=O)(=O)c3ccccc32)c1,"inconclusive [inhibitor, partial curve, poor fit]",–
Cc1scc(C(=O)NCc2ccco2)c1-c1ccccc1,–,inactive: -0.493%
O=C(c1ccccc1)N1CCN(C2c3cccc4cccc(c34)C2NS(=O)(=O)c2ccccc2)CC1 (stereo unspecified),"inconclusive [inhibitor, single point]",–
COc1cccc(CNC(=O)CSc2n[nH]c(-c3ccccc3Cl)n2)c1,–,inactive: 5.39%
Cc1ccc(C)c(Cn2cnc3ccccc3c2=O)c1,"inconclusive [inhibitor, single point]",–
COc1ccc(OC)c(CCNC(=O)CN2C(=O)COc3ccc(S(=O)(=O)N4CCCCCC4)cc32)c1,"inconclusive [inhibitor, single point]",–
CCc1ccc(CNC(=O)c2ccc3c(c2)nc2n3CCCCC2)cc1,–,inactive: 12.3%
O=C(O)/C=C/C(=O)NNc1ccc([N+](=O)[O-])cc1,active: 8.91 µM,–
CCOC(=O)c1ccccc1NC(=O)CSc1ccccc1,"inconclusive [inhibitor, single point]",–
COc1ccccc1NS(=O)(=O)c1cc(NC(=O)c2ccc(Cl)nc2)ccc1Cl,"inconclusive [inhibitor, partial curve, poor fit]",–

Structure (SMILES),Potency,"activity change, negative = inhibition"
Cc1ccc(-n2c(C)nnc2SCC(=O)N2CCc3ccccc3C2)cc1,"inconclusive [inhibitor, partial curve, poor fit]",–
O=C(NCCc1cccs1)C(c1ccccc1)c1ccccc1,"inconclusive [inhibitor, partial curve, poor fit]",–
COc1ccc(-c2cc(=O)c3cc(OC)ccc3[nH]2)cc1,"inconclusive [inhibitor, full curve, poor fit]",–
Fc1ccccc1C1=NC(c2ccc(C(F)(F)F)cc2)=Nc2ccccc2N1,"inconclusive [inhibitor, partial curve, poor fit]",–
O=C1N(Cc2cccnc2)C[C@@H]2C[C@@H](c3ccccc3C#Cc3ccccc3)N3CCC[C@@]123,"inconclusive [inhibitor, single point]",–
CCOc1ccccc1CN1CCc2nc(Nc3ccccc3)ncc2C1,"inconclusive [inhibitor, partial curve, poor fit]",–
O=C(NCc1ccccn1)c1nn(-c2ccccc2F)nc1CO,"inconclusive [inhibitor, partial curve]",–
COc1ccc(OCC(CO)N2CCN(c3ccccc3)CC2)cc1 (stereo unspecified),"inconclusive [inhibitor, partial curve, poor fit]",–
CC(C)N(Cc1ccccc1)C(=S)NCc1ccccc1,"inconclusive [inhibitor, single point]",–
COc1ccccc1NC(=O)c1ccc2c(c1)C(=O)N(Cc1ccco1)C2=O,–,inactive: 6.95%
CCOC(=O)c1c(C)nn(-c2ccc(NC(=O)c3cccs3)cc2)c1C,"inconclusive [inhibitor, partial curve]",–
Cc1nc(N2CCCC2)ncc1C(=O)Nc1ccccc1,–,inactive: 5.52%
COc1ccccc1NC(=O)CSc1ncc2c(n1)-c1cc(Cl)ccc1N(C)S2(=O)=O,"inconclusive [inhibitor, single point]",–
Cc1ccc(C(=O)CCC(=O)N2CCN(C(=O)c3ccco3)CC2)cc1,"inconclusive [inhibitor, single point]",–
Clc1ccc(C2=NNC(=NCC3CCCO3)SC2)cc1 (stereo unspecified),"inconclusive [inhibitor, single point]",–
Cc1cc(O)c(C(c2cccc(Cl)c2)N2CCN(c3ccccc3)CC2)c(=O)n1Cc1ccco1 (stereo unspecified),"inconclusive [inhibitor, single point]",–
CC(=O)Nc1cccc(-c2ccnc3c2CC(C(=O)Nc2cccc(Oc4ccccc4)c2)O3)c1 (stereo unspecified),"inconclusive [inhibitor, single point]",–
CN(C)c1ccc(CN(CC2CCCO2)C(=O)COc2ccc(Cl)cc2)cc1 (stereo unspecified),–,inactive: -19%
CCc1ccc(-n2c(C)nc3cc(C(=O)NCCc4ccccc4)ccc32)cc1,"inconclusive [inhibitor, single point]",–
CC1CN(CCCSc2ccc(Cl)cc2)CC(C)O1 (stereo unspecified),"inconclusive [inhibitor, partial curve, poor fit]",–
